In PubChem BioAssay AID760 (NMMLSC, 2007):
Hit rate of the full screen: of about 190,000 compounds, about 360 (0.19%) were called active. The inconclusive results got no clear call from the source; some entries with a clear call stand among them for comparison.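 The calls were made as follows: active = GTP binding activity at least 20 points away from 100%, either lowered or raised; inconclusive = signal likely due to the compound's own green fluorescence; inactive = the rest.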

target: Ras-related protein Rab-2A (Canis lupus familiaris) (UniProt P61105); assay: Rab2 wt fluorescent GTP binding changes, either direction – biochemical, dog, bead-based flow cytometry, multiplex, primary screen (AID 760); conditions: GST-Rab2 wt beads, Bodipy-GTP binding, at 10 µM;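 also: 0% = beads with excess unlabeled GTP and 100% = no-compound control corrected for plate trend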

| SMILES | GTP binding activity |
| --- | --- |
| CCOc1ccc(-c2cc(C(=O)Nc3ccc4c(c3)OCCO4)c3ccccc3n2)cc1 | inconclusive: 93% |
| Cc1ccc(-c2nnc3c4ccccc4c(C)nn23)cc1NC(=O)CN1CCOCC1 | inactive: 94% |
| CN(C(=O)Cn1cccc1C1=NC(c2ccccc2)CO1)c1ccccc1 (centres undefined) | inactive: 100% |
| C/C(=C\c1ccccc1)CN1CCN(c2ccccc2F)CC1 | inconclusive: 93% |
| CCOC(=O)N1CCN(c2cc(=O)n(-c3ccc(Br)cc3)c(=O)[nH]2)CC1 | inconclusive: 102% |
| CC(C)OC(=O)CSc1nc(-c2ccc(F)cc2)nc2ccc(F)cc12 | inconclusive: 104% |
| COc1cc(Cn2c(-c3nonc3N)nc3ccccc32)ccc1C | inconclusive: 89% |
| CC(=O)Nc1nc(SCCCc2ccccc2)n[nH]1 | inconclusive: 102% |
| CNC(=O)c1ccsc1NC(=O)CCS(=O)(=O)c1ccccc1 | inconclusive: 99% |
| CCOc1ccc(-n2c(C)nc3cc(C(=O)NCc4ccco4)ccc32)cc1 | inconclusive: 94% |
| CC(C)(C)C(=O)/C(C#N)=C/c1ccc(O)cc1 | inconclusive: 91% |
| CCC(C)(C)C1CCC(=NNS(=O)(=O)c2ccc(C)c([N+](=O)[O-])c2)CC1 (centres undefined) | inconclusive: 94% |
| Cc1ccc(NC(=S)NC(=O)c2ccc(-c3ccccc3)cc2)c(C)c1 | inactive: 97% |
| COC(=O)c1cccc(NC(=O)Nc2ccc(Cl)c(Cl)c2)c1 | inconclusive: 108% |
| Cc1nnc2sc(SCC(=O)Nc3cccc(Cl)c3)nn2c1=O | inactive: 100% |
| CCC1=NN2C(=N)/C(=C\c3cccn3-c3ccc(C)cc3C)C(=O)N=C2S1 | inconclusive: 88% |
| CCOC(=O)Nc1nc(C)c(C(=O)c2ccc(Cl)cc2)s1 | inconclusive: 106% |
| COc1ccc(-n2c(NC(=O)c3ccc(Br)o3)c(C#N)c3nc4ccccc4nc32)cc1 | active: 79% |
| CCc1nnc(NC(=O)CCC(=O)N2CCN(c3ccccn3)CC2)s1 | inconclusive: 31% |
| Cc1cccc2nc(CSc3nc4ccccc4[nH]3)cn12 | inconclusive: 94% |
| NC(=O)N=Nc1c(O)[nH]c2c(Br)cc(Br)cc12 | active: 75% |
| Cc1c(Br)c([N+](=O)[O-])nn1CC(=O)Nc1c(C)n(C)n(-c2ccccc2)c1=O | inactive: 99% |
| CS(=O)(=O)c1ccc(Cl)c(NC(=O)c2ccc3ccccc3c2)c1 | inactive: 102% |
| CC(C)Oc1cccc(C(=O)C2CCCN(Cc3cccn3-c3ccccn3)C2)c1 (centres undefined) | inactive: 100% |

| SMILES | GTP binding activity |
| --- | --- |
| CC(=O)NC12CC3CC(C1)CC(C(=O)OCC(=O)c1ccc4c(c1)OCCO4)(C3)C2 | inactive: 102% |
| CN(/N=C/c1ccco1)C1=NS(=O)(=O)c2ccccc21 | active: 73% |
| Cc1ccccc1OCCn1cc(/C(N)=N/O)c2ccccc21 | inactive: 90% |
| CC(C)(C)N(NC(=O)Nc1ccc(Cl)c(Cl)c1)C(=O)c1ccccc1 | inconclusive: 106% |
| CCOc1ccc(C(=O)N/N=C(/C)C2C(=O)c3ccccc3C2=O)cc1 | inconclusive: 92% |
| CC(C)(C)NC(=O)COc1ccc(CNCc2ccccn2)cc1 | inconclusive: 93% |
| COc1cc(-c2c(C#N)c(=O)[nH]c3c2c(C)nn3-c2ccccc2)ccc1O | inconclusive: 90% |
| CSc1nc(C)cc(SCC(=O)N/N=C/c2ccccc2)n1 | inconclusive: 82% |
| COc1ccc(C)cc1N(CC(=O)N1CCc2ccccc2C1)S(C)(=O)=O | inconclusive: 94% |
| O=C(CSCc1ccc(Cl)cc1)Nc1ccc2c(c1)OCCO2 | inactive: 96% |
| CCc1nc(N)c(C#N)c(-c2ccc(F)cc2)c1C | inconclusive: 104% |
| O=C(CN1CCCCC1)N1CCCc2ccccc21 | inactive: 102% |
| CSc1nc2nc3c(cc2c(=O)n1-c1ccccc1)COC(C)(C)C3 | inconclusive: 96% |
| Cc1nnc(SCc2ccccc2CSc2nnc(C)s2)s1 | inactive: 100% |
| COc1cccc(-n2nnc3c(=O)n(CC(=O)N4CCCc5ccccc54)cnc32)c1 | inactive: 102% |
| COc1ccc(C2=Nn3c(nnc3-c3ccco3)SC2)cc1 | inconclusive: 78% |
| CCOc1cc(/C=C(/C#N)c2nc3ccccc3[nH]2)ccc1OCc1ccc(C(=O)O)o1 | active: 74% |
| Cc1cccc(NC(=O)CSc2nc3c([nH]c4ccccc43)c(=O)n2C)c1 | inactive: 101% |
| Cc1ccc(C(=O)CC2(O)C(=O)N(C)c3ccccc32)s1 (centres undefined) | inactive: 99% |
| COC(=O)c1ccccc1NC(=O)CN(Cc1ccccc1)S(C)(=O)=O | inconclusive: 102% |
| CCOC(=O)C1(CC2CCCCO2)CCN(Cc2cc3ccccc3[nH]2)CC1 (centres undefined) | inactive: 102% |
| S=c1nc2ccccc2c2nc(-c3ccccc3)[nH]n12 | inconclusive: 93% |
| NS(=O)(=O)c1ccc(CCNC(=O)c2ccc3ccccc3n2)cc1 | inactive: 94% |
| Cc1cc(C)c(C(=O)Cn2cnc3cc([N+](=O)[O-])ccc3c2=O)cc1C | inconclusive: 75% |

| SMILES | GTP binding activity |
| --- | --- |
| O=C(Nc1ccc(C(=O)O)cc1)/C(=C\c1ccco1)NC(=O)c1ccccc1 | inconclusive: 94% |
| COc1ccc(C2=Nc3ccc(Br)cc3C(c3ccccc3)N2CC(=O)NN)cc1 (centres undefined) | inconclusive: 90% |
| O=c1[nH]c(N/N=C/c2ccc(O)cc2)nc2ccccc12 | active: 77% |
| CSc1nc2c(c(-c3ccc(O)cc3)c1C#N)CCC2 | inconclusive: 87% |
| COc1ccccc1C(=O)Oc1ccc(N2C(=O)CCC2=O)cc1 | inconclusive: 93% |
| C=C1CSc2nc(=O)c3c(C)c(C)sc3n21 | inconclusive: 87% |
| O=C(CCN1CCc2ccccc2C(c2ccccc2)C1)c1ccc2c(c1)OCCO2 (centres undefined) | inconclusive: 95% |
| CN1C(=O)/C(=C2\SC(N)=NC2=O)c2ccccc21 | inconclusive: 78% |
| CC(Sc1nnc2ccccn12)C(N)=O (centres undefined) | inactive: 94% |
| COc1ccc(NC(=O)Cc2c(SC)c3ccccc3n2Cc2ccccc2)cc1 | inconclusive: 101% |
| CCOC(=O)N1CCC(NC(=O)c2cc(C(=O)Nc3cccc(OC)c3)ccc2CO)CC1 | inconclusive: 100% |
| Cc1cccc(NC(=O)CN2C(=O)N/C(=C/c3ccc(C)s3)C2=O)c1 | inconclusive: 103% |
| CC1CCC2C(=O)N(c3ccc(NC4CCN(Cc5ccccc5)CC4)c([N+](=O)[O-])c3)C(=O)C2C1 (centres undefined) | inconclusive: 91% |
| CCOC(=O)N1CCN(C(=O)Cn2c(=O)sc3ccccc32)CC1 | inconclusive: 103% |
| COCCNC(=O)c1ccc(C(=O)C(=O)c2ccccc2)cc1 | inconclusive: 102% |
| COc1ccc(N2C(=O)CN=C2Nc2nc(C)cc(C)n2)cc1OC | inconclusive: 102% |
| O=C(CCn1cnc2ccccc2c1=O)Nc1nc(-c2ccc(Br)cc2)cs1 | inactive: 103% |
| Cc1nc(N2CCCCC2)sc1C=O | inactive: 105% |
| COc1ccccc1N1CCN(C(=O)c2ccc(C(C)(C)C)cc2)CC1 | inconclusive: 105% |
| COc1ccc(OC2C(=O)N(Cc3ccc4c(c3)OCO4)C2c2sccc2C)cc1 (centres undefined) | inconclusive: 103% |
| CC(=O)N1N=C(c2ccc3nccnc3c2)CC1c1ccccc1 (centres undefined) | inconclusive: 108% |
| O=c1cnc2cc([N+](=O)[O-])ccc2[nH]1 | inactive: 94% |
| CCCN=C1CC(C)(C)CC(=O)/C1=C(/O)CCCN1C(=O)c2ccccc2C1=O | inconclusive: 95% |
| Cc1ccnc(NC(=S)NC(=O)c2cccs2)c1 | inactive: 100% |

| SMILES | GTP binding activity |
| --- | --- |
| NC(=S)n1[nH]c(-c2ccc([N+](=O)[O-])cc2)c(N=Nc2cccc([N+](=O)[O-])c2)c1=O | inconclusive: 90% |
| CSc1ccccc1C(=O)Nc1nccs1 | inconclusive: 102% |
| Cc1cc(C(=O)OCC(=O)Nc2ccc(F)cc2F)c(C)o1 | inconclusive: 102% |
| Oc1c(C=Nc2ccccc2)sc(=S)n1Cc1ccccc1 | inconclusive: 126% |
| CCC(=O)Nc1ccc2c(c1)ncn2-c1ccccc1OC | inconclusive: 106% |
| Cc1cccc(NC(=O)c2ccc(COc3cccc4ccccc34)o2)n1 | inactive: 96% |
| Cc1nc2nc(SCC(=O)N3CCOCC3)nn2c(C)c1Cc1ccccc1 | inconclusive: 102% |
| O=C(CNC(=O)Cc1ccccc1)N=Nc1c(O)n(Cc2ccc3c(c2)OCO3)c2ccccc12 | active: 78% |
| O=C(Nc1cccnc1N1CCOCC1)c1ccco1 | inconclusive: 98% |
| O=[N+]([O-])/C=C\c1ccc(N2CCCC2)c(F)c1 | inactive: 98% |
| Nn1c(Cc2cccc3ccccc23)n[nH]c1=S | inconclusive: 93% |
| O=C(c1ccccc1)c1cccn1CC(=O)N1CCCCCC1 | inconclusive: 104% |
| O=C(Cn1cnc2cc([N+](=O)[O-])ccc2c1=O)Nc1cccc(S(=O)(=O)N2CCOCC2)c1 | inconclusive: 91% |
| CCC(=O)N/C(=N/c1nc(C)cc(C)n1)Nc1cccc(OC)c1 | inconclusive: 103% |
| CCOC(=O)C(C(=O)OCC)C(C)C#CCN1CCCCC1 (centres undefined) | inconclusive: 104% |
| COCc1c(CCl)cnc(C)c1O | inconclusive: 91% |
| COc1cccc(-n2c(SCC(=O)NCCc3ccccc3)nnc2-c2ccoc2C)c1 | inconclusive: 102% |
| CCOC(=O)C1CCCCN1Cc1cc(OC)ccc1OC (centres undefined) | inconclusive: 104% |
| Cc1c2ccccc2nc2c(F)c(NCCO)c(F)c(F)c12 | inconclusive: 96% |
| Cc1cc(NC(=O)CSc2nc3c(cc2C#N)CCCCC3)no1 | inactive: 94% |
| O=C(N/N=C/c1cc2c3c(c1O)CCCN3CCC2)c1ccccc1O | inconclusive: 97% |
| Cc1cc(NC(=O)C2CC2)n(-c2nc3ccccc3s2)n1 | inconclusive: 92% |
